Reference: the BET-seq Pho4 binding data (Le et al. 2018)
Some of the results follow. The energies were worked out here from pooled read counts, against the library average; single values are noisy.

Each sequence was assayed against T1, Pho4 (S. cerevisiae) (UniProt P07270) (assay: relative binding free energy (BET-seq); higher = weaker binding). Details: reference: library average.
T1 sequence: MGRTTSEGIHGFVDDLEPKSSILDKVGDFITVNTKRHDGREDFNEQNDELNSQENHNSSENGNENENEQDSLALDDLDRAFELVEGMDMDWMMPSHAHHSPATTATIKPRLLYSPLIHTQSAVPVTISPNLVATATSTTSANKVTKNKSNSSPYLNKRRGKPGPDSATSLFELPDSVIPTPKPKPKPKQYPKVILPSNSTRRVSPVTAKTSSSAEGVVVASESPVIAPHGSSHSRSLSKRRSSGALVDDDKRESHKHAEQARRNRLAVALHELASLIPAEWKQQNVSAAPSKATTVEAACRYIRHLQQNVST

| Sequence | relative binding free energy [kcal/mol] |
| --- | --- |
| ATGGTCACGTGACGGT | 0.32 |
| AGATTCACGTGTGTTT | 0.35 |
| CATATCACGTGGTGTA | -0.04 |
| TAGTTCACGTGTGGGT | 0.34 |
| GGCCGCACGTGGTGTG | -0.23 |
| TGCGTCACGTGGGTAG | -0.09 |
| TAGGGCACGTGGGATC | -0.12 |
| GTACACACGTGTTATG | 0.05 |
| GAGGGCACGTGTGCGA | -0.07 |
| GATTACACGTGTAGGT | 0.11 |
| CTGAGCACGTGGGGCT | -0.1 |
| TGCTTCACGTGGAATG | 0.28 |
| GGGGGCACGTGGAAGT | 0.11 |
| CTGGTCACGTGTTTTA | 0.02 |
| TATTGCACGTGATTTT | 0.11 |
| CTATTCACGTGGTGTA | 0.17 |
| GTCGCCACGTGTAGGT | -0.09 |
| GCGTGCACGTGGGTGG | -0.19 |
| GTCGGCACGTGGTGGA | -0.11 |
| TGGGGCACGTGATAAC | -0.03 |
| CGAGGCACGTGGTCGT | -0.23 |

| Sequence | relative binding free energy [kcal/mol] |
| --- | --- |
| ATATACACGTGTGTCA | 0.11 |
| TTTGGCACGTGAATCT | 0.06 |
| TGTTACACGTGCCGGT | 0.09 |
| ATGTCCACGTGGATAG | 0.07 |
| ATGTTCACGTGAGAGG | 0.38 |
| TGGGGCACGTGAAAGT | 0.16 |
| CTTGGCACGTGTAGCT | 0.18 |
| TGATACACGTGGATAG | 0.03 |
| AAAGTCACGTGGTTGT | 0.09 |
| TCAAGCACGTGGGTTG | -0.22 |
| TAGGGCACGTGTGTTC | -0.11 |
| GTGGACACGTGCAGGG | 0.1 |
| GCAGTCACGTGTATGG | 0.2 |
| GTATTCACGTGATATA | 0.25 |
| TAATACACGTGTGCGA | 0.15 |
| TAGGACACGTGTCATT | 0.16 |
| AAAGTCACGTGGGTGG | 0.06 |
| ATGATCACGTGGGCAG | 0.04 |
| ACAGTCACGTGGGGAT | -0.05 |
| CGCGCCACGTGTGGGT | -0.06 |
| ACAATCACGTGGGTTT | 0.11 |

| Sequence | relative binding free energy [kcal/mol] |
| --- | --- |
| AATCGCACGTGTAAGG | 0.05 |
| AACAGCACGTGTGTTT | 0.08 |
| GTGAACACGTGATGGC | 0.26 |
| CTCTGCACGTGTGGTT | 0.08 |
| TAAGTCACGTGAGATT | 0.28 |
| GTCTGCACGTGGGCGA | -0.12 |
| AGCGGCACGTGTGTGT | -0.08 |
| GCAGGCACGTGGCGTT | -0.15 |
| ATGTTCACGTGGGAGT | 0.15 |
| TAACGCACGTGATGGG | 0.05 |
| GTTGTCACGTGAACTA | 0.53 |
| TCTTACACGTGTGTGG | 0.12 |
| ATAAGCACGTGATGCG | -0.05 |
| CGGGGCACGTGGGACG | -0.18 |
| AGTGACACGTGATGGT | 0.16 |
| TTAGTCACGTGTCTGC | 0.07 |
| ATTGCCACGTGGTGGG | -0.13 |
| GGTCGCACGTGGAGTC | 0.11 |
| AGAGTCACGTGGTGAG | 0.09 |
| ACGATCACGTGGATGT | 0.2 |
| CCAGTCACGTGGGTGT | -0.14 |
